# Assay results: PubChem BioAssay AID1159614 (National Center for Advancing Translational Sciences (NCATS), 2016)
# Out of some 45,000 compounds screened, about 65 (0.1%) were called active. Calls follow the shape of the dose curve; as a rule, active = well fitted activation curve with a large enough effect; inconclusive = small, poorly fitted or top-dose-only effect; inactive = no such curve, though single readings can be large or run the other way. The list shows a part of the results.
# Target: Galactocerebrosidase (Homo sapiens) (UniProt P54803)
# Assay: A Novel Cell-Based Assay to Identify Small Molecules for B -Galactocerebrosidase; also: 0% is about no effect; nearly all actives have a fitted effect of over 65% in size
# Conditions: 145M-Twi-hGALC-G270D cells (Twitcher mouse brain line with human GALC G270D), HMU-beta-Gal fluorescence, 48 h; series mostly up to 57.5 µM; activation: at the top concentration
# Outline: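 Fluorogenic HMU-b-Gal hydrolysis (0.1 mM final, pH 5.2 citrate-phosphate with 1 mg/mL sodium taurocholate; carbonate stop buffer) measures mutant GALC activity after compound treatment of live 145M-Twi Twitcher brain cells stably carrying human GALC-G270D, with wild-type GALC line alongside; activation sought.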
# Sequence of UniProt P54803 (P54803 whole entry, looked up): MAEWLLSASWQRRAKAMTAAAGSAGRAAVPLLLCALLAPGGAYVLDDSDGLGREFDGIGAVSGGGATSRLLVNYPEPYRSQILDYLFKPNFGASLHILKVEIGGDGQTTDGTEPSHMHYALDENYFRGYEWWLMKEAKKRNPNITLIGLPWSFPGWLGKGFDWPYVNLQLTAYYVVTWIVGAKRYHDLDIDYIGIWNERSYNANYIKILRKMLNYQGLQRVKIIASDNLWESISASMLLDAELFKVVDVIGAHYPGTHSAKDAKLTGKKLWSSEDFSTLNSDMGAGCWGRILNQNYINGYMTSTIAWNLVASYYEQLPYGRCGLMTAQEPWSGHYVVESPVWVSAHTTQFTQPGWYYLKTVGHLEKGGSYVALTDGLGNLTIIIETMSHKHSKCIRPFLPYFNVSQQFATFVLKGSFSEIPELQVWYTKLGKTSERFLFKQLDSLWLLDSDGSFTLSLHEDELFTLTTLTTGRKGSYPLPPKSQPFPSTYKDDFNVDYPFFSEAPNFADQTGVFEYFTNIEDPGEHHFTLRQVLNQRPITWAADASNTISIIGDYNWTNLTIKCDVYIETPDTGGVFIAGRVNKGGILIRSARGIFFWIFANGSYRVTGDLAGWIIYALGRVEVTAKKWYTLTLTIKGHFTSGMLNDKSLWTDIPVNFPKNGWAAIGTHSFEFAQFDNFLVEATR
row,SMILES,activation
1,CCc1ccc(CNC(=O)c2ccc3c(c2)N=C(C)c2cc(C)ccc2S3)cc1,inactive: -13.9%
2,CN(C)CCNC(=O)c1ccc(-n2c(-c3ccccc3)cc3c2CCCC3)cc1,inactive: 1.2%
3,COP(=O)(OC)OC(c1ccc(Cl)cc1)P(=O)(OC)OC (configuration not stated),inactive: -12.7%
4,CCCNC(=O)c1ccc2c(c1)ncn2-c1ccc(C)cc1C,inactive: -14.4%
5,COc1ccc(NC(=O)Cn2c(=O)oc3cc(S(=O)(=O)NC4CCCC4)ccc32)cc1OC,inactive: 2.02%
6,COc1ccc(CNc2ncnc3onc(C)c23)cc1,inactive: -16.3%
7,CCOC(=O)c1c(NC(=O)CS(=O)(=O)c2ccc(C)cc2)sc2c1CCCCC2,inactive: -24.7%
8,Cc1ccc(C(C)C)c(OCC(=O)Nc2cccc(NC(=O)c3ccco3)c2)c1,inactive: -2.33%
9,CC1=Nc2cc(C(=O)NCCc3ccc(Cl)cc3)ccc2Sc2ccc(C)cc21,inactive: -23.7%
10,CCC(CC)C(=O)NC1CC(=O)N(c2ccc3c(c2)OCCO3)C1 (configuration not stated),inactive: 1.78%
11,Cc1ccc(-c2ccc(=O)n(Cc3cc(C)ccc3C)n2)cc1,inactive: -2.96%
12,Cc1ccc(-c2nc3cccnc3s2)cc1NC(=O)C(C)C,inactive: -8.67%
13,Cc1nc(-c2ccccc2)sc1-c1ccc(SCC(=O)NCc2ccc(F)cc2)nn1,inactive: 1.87%
14,Cn1c(=O)c2c(SCC(=O)N3CCc4ccccc43)nc(-c3ccccc3Cl)nc2n(C)c1=O,inactive: -11.4%
15,CCOc1ccc(-n2c(CCC(=O)O)ccc2-c2ccc(Br)cc2)cc1,inactive: -12.8%
16,COC(=O)C(Cc1c[nH]c2ccccc12)NC(=O)COc1ccc(Cl)cc1Cl (configuration not stated),inactive: -11%
17,CCOc1ccc(-n2c(SCC(=O)N3CCCC3)nc3c([nH]c4ccccc43)c2=O)cc1,inactive: -12%
18,Cc1cccc(NS(=O)(=O)c2ccc3[nH]c(=O)ccc3c2)c1C,inactive: 26.8%
19,CCc1ccc(CNC(=O)CCSCc2ccccc2F)cc1,inactive: -9.15%
20,COc1cccc(C2=CC(c3ccc(OC)c(OC)c3OC)n3ncnc3N2)c1 (configuration not stated),inactive: -12.2%
21,O=C(CSc1nc(-c2ccccc2)no1)N1CCN(c2ccccc2F)CC1,inactive: 5.51%
22,O=C(Cn1c(=O)nc(-c2ccccc2)c2ccccc21)Nc1ccc(Cl)c(C(F)(F)F)c1,inactive: -7.09%
23,CCN(C(=O)Cc1nc(-c2ccc(OC)cc2)no1)c1cccc(Cl)c1,inactive: -5.53%
24,COc1ccc(C(=O)c2cn(CC(=O)Nc3ccc4c(c3)OCCO4)c3ccc(OC)cc3c2=O)cc1,inactive: -4.89%
25,COc1ccccc1OCCn1c(-c2ccc(Cl)cc2)nc2ccccc2c1=O,inactive: -5.21%

row,SMILES,activation
1,Cc1oc2ccc(O)c(CN(C)Cc3ccccc3)c2c1C(=O)Nc1cccc(C(F)(F)F)c1,inactive: 2.55%
2,COc1cc(NC(=O)Cn2c(=O)oc3cc(S(=O)(=O)N4CCCCCC4)ccc32)cc(OC)c1,inactive: -15.6%
3,COc1ccc(OC)c(NC(=O)CSc2ccnc(=O)[nH]2)c1,inactive: -14%
4,COc1ccc(NC(=O)c2c(NCc3ccc(C)o3)sc3c2CCC(C)C3)c(OC)c1 (configuration not stated),inactive: -9.64%
5,Cn1c(=O)oc2cc(S(=O)(=O)CCC(=O)N3CCN(c4ccccc4)CC3)ccc21,inactive: -18.3%
6,COc1ccccc1-c1cc(C(=O)Nc2sc3c(c2C#N)CCCC3)no1,inactive: -18.5%
7,CCOc1ccc(CCNC(=O)CN2C(=O)C(CC)Oc3ccccc32)cc1OCC (configuration not stated),inactive: -1.74%
8,COc1ccc(C(=O)NCc2nnc(SCC(=O)Nc3ccccc3)n2-c2ccc(F)cc2)cc1,inactive: 15.2%
9,CC(C)NCC(O)COc1cccc2[nH]ccc12 (configuration not stated),inactive: -7.6%
10,COC(=O)c1c(-c2ccc(Cl)cc2)noc1N1CCN(c2ccc(OC)cc2)CC1,inactive: -13.1%
11,Cc1ccc2c(c1)NC(=O)C(CC(=O)Nc1cc(Cl)ccc1C)O2 (configuration not stated),inactive: -15.4%
12,COc1ccc(C2CC(c3c(O)n(C4CCCCC4)c(=O)[nH]c3=O)=Nc3ccccc3S2)cc1 (configuration not stated),inactive: 1.64%
13,COc1ccccc1N1CCN(S(=O)(=O)c2c(C)sc3ncn(CC(=O)Nc4cccc(Cl)c4)c(=O)c23)CC1,inactive: -22.6%
14,O=C(Nc1ccc(Br)cc1)C1CCN(c2cnccn2)CC1,inactive: -15.2%
15,COc1cc(OC)c(Nc2cc(C)nc3ncnn23)cc1Cl,inactive: -5.33%
16,CCc1nn2c(=O)cc(COC(=O)CNC(=O)c3ccccc3)nc2s1,inactive: 7.05%
17,O=C(COc1ccccc1F)OCc1cc(=O)n2nc(-c3cccs3)sc2n1,inactive: -8.56%
18,CCC(C(=O)N1CCN(c2ccccc2)CC1)n1nc(C)n2c(cc3sccc32)c1=O (configuration not stated),inactive: -11.3%
19,COc1ccccc1CNC(=O)c1ccc(N2CCCC2)c(NC(=O)NCc2ccccc2)c1,inactive: -6.51%
20,CCN(CC)S(=O)(=O)c1nnc(NC(=O)COc2ccccc2Cl)s1,inactive: -15.7%
21,CCOc1ccc(C(=O)Nc2cccc(NC(=O)c3ccco3)c2)cc1Cl,inactive: -22.6%
22,CC1CCCCN1CCCNC(=O)Cn1ncc2c([nH]c3ccccc32)c1=O (configuration not stated),inactive: -13.8%
23,Cc1cccc(CNS(=O)(=O)c2ccc3[nH]c(=O)ccc3c2)c1,inactive: -8.39%
24,NC(=O)c1cc(S(=O)(=O)N2CCN(c3ccc(F)cc3)CC2)cs1,inactive: -3.05%
25,CCC(CC)c1nn2c(=O)cc(COc3ccc(NC(=O)c4ccccc4Cl)cc3)nc2s1,inactive: 8.94%

row,SMILES,activation
1,Cc1ccccc1CNC(=O)C1CCN(c2nn3cc(-c4ccc(F)cc4)nc3s2)CC1,inactive: -10.5%
2,COc1ccc(C)cc1NC(=O)c1cc(S(=O)(=O)NC2CCCCCC2)ccc1F,inactive: -1.59%
3,COc1ccc(Cn2c(=O)[nH]c3cc(C(=O)N4CCN(c5cc(C)ccc5C)CC4)ccc3c2=O)cc1,inactive: -14.7%
4,CC(=O)c1cc(-c2ccccc2)n(CC(=O)NC2CCCCC2)c1C,inactive: -8.98%
5,CC(C)Cn1c(=O)c2ccccc2n2c(CCC(=O)Nc3cccc(Cl)c3)nnc12,inactive: -11.7%
6,CCOC(=O)c1cnc2cc(-c3ccc(Cl)cc3)nn2c1-c1ccccc1,inactive: -9.86%
7,COc1ccc(-c2cnnn2-c2ccc(NC(=O)c3c(F)cccc3F)cc2)cc1,inactive: 0.0993%
8,COc1ccc(-c2cnnn2-c2ccc(NC(=O)c3ccc(S(=O)(=O)N(C)C)cc3)cc2)cc1,inactive: -13.3%
9,O=C(Cc1ccc(F)cc1)NC1CC(=O)N(c2ccccc2)C1 (configuration not stated),inactive: -7.71%
10,CCOc1ccc(Cn2nnc3c(=O)[nH]c(C4CCN(C(=O)c5ccccc5)CC4)nc32)cc1,inactive: -10.9%
11,CCCOc1ccc(-c2nn(-c3ccccc3)cc2C2NC(=O)NC(C)=C2C(=O)OC(C)C)cc1 (configuration not stated),inactive: -21.9%
12,O=C1Nc2c(c(=O)[nH]c(=O)n2-c2ccccc2)C1(NS(=O)(=O)c1ccc(Cl)cc1)C(F)(F)F (configuration not stated),inactive: -10.2%
13,OC(CCN1CCCC1)(c1ccccc1)C1CCCCC1 (configuration not stated),inactive: -13.2%
14,CCOc1ccccc1/C=C/c1onc(C)c1S(=O)(=O)N1CCC(C(=O)N(CC)CC)CC1,inactive: -4.85%
15,Cc1ccc(NC(=O)Cn2c(=O)n(CCCCCC(=O)NCc3ccc(F)cc3)c(=O)c3sccc32)cc1C,inactive: -13.7%
16,CCc1nnc(SCC(=O)Nc2ccc(F)cc2F)c2cc3sc(C)cc3n12,inactive: -15.4%
17,COc1ccc(F)cc1S(=O)(=O)NCCc1sc2nc(-c3ccc(F)cc3)nn2c1C,inactive: -12.3%
18,Cc1cc(C)cc(Oc2nc3c(c(=O)n(C)c(=O)n3C)n2Cc2ccc(F)cc2)c1,inactive: -17%
19,CCOC(=O)c1ccccc1NC(=O)N(C)CCc1c(C)nn(CC)c1C,inactive: -6.51%
20,COc1ccc(N2CCN(c3oc(/C=C/c4cc(OC)c(OC)c(OC)c4)nc3C#N)CC2)cc1,inactive: -9.27%
21,COc1cc(C(=O)Nc2ccc3oc(-c4ccc(C)c(Br)c4)nc3c2)cc(OC)c1OC,inactive: -20.5%
22,CCc1cccc(C)c1NC(=O)CSc1nnc(CC)n2c1cc1occc12,inactive: -16.3%
23,Cc1cc(C)c2c(CC(=O)Nc3c(C(=O)Nc4ccc(Cl)cc4)oc4ccccc34)coc2c1,inactive: -24.7%
24,COc1ccc(CNC(=O)CN2C(=O)c3cccnc3Oc3ccc(C)cc32)cc1,inactive: 0.615%
25,Cc1cc(OCC(=O)N(Cc2sccc2C)C2CCS(=O)(=O)C2)ccc1Cl (configuration not stated),inactive: -14.9%

row,SMILES,activation
1,COc1ccc(Nc2cc(C(=O)NCc3ccccc3OC)c3ccccc3n2)cc1,inactive: -14.8%
2,Cc1cc(Nc2cccc(Cl)c2)nc2ccc(NC(=O)c3cccnc3)cc12,inactive: -13.8%
3,CCCSCCCNC(=O)c1ccc2nc(Cc3ccccc3)oc2c1,inactive: -7.48%
4,CCSc1ncc(Cl)c(C(=O)Nc2ccc(S(=O)(=O)N(C)c3ccccc3)cc2)n1,inactive: -18.3%
5,O=C(NCCc1ccccc1)c1cnn(-c2ccc(F)cc2)c1-n1cccc1,inactive: -12.3%
6,CCOC(=O)N1CCc2c(sc3c2c(=O)n(CCc2ccccc2)c(=O)n3Cc2c(F)cccc2Cl)C1,inactive: -5.05%
7,CCc1ccc(CNC(=O)CN2CCSc3ccccc32)cc1,inactive: -24.4%
8,Cc1ccc(NC(=O)C(=O)NCC2(c3ccccc3)CCCC2)cc1Cl,inactive: -12.2%
9,O=C(CN1C(=O)COc2ccc(S(=O)(=O)N3CCCCCC3)cc21)NCc1ccc(F)cc1,inactive: -4.45%
10,Cc1ccc(NC(=O)CSc2nc3n[nH]c(C)c3c(=N)n2-c2cccc(C)c2)cc1,inactive: -4.01%
11,Cn1c(=O)oc2cc(S(=O)(=O)Nc3ccc(C(=O)O)cc3)ccc21,inactive: -19.1%
12,CCC(=O)N1CCc2cc(Br)cc(S(=O)(=O)N3CCCC(C(=O)N(C)c4ccc(Br)cc4)C3)c21 (configuration not stated),inactive: -3.3%
13,Cc1cc(C)cc(OCC(=O)Nc2ccc(-c3nc4ccccc4o3)cc2)c1,inactive: -9.07%
14,Cc1cc(C)c2c(CC(=O)N(Cc3ccccc3)C3CCS(=O)(=O)C3)coc2c1 (configuration not stated),inactive: -8.79%
15,CCC(=O)N1CCc2cc(S(=O)(=O)NC(C(=O)Nc3ccc(C(C)=O)cc3)C(C)C)ccc21 (configuration not stated),inactive: -17.5%
16,COc1ccccc1CNC(=O)c1ccc(-c2nc(CN3CCc4ccccc43)c(C)o2)cc1,inactive: -37.6%
17,COc1ccc(NC(=O)c2cccn2-c2nnc(N3CCCCC3)s2)cc1,inactive: -11.1%
18,Cc1ccc(Cl)cc1N1CCN(c2ncnc3onc(C)c23)CC1,inactive: -27.6%
19,CCOC(=O)C1CCCN(c2nc3c(S(=O)(=O)c4ccc(C)c(C)c4)nnn3c3ccc(Cl)cc23)C1 (configuration not stated),inactive: 11.5%
20,CCn1c(=O)c2sccc2n2c(CCC(=O)Nc3cc(C)cc(C)c3)nnc12,inactive: -8.4%
21,COc1cccc(C(=O)Nc2cc3c(cc2C(=O)c2ccc(C)cc2)OCCO3)c1,inactive: -17.1%
22,COc1ccc(-c2nc(CS(=O)CC(=O)NCc3ccccc3OC)c(C)o2)cc1 (configuration not stated),inactive: -14.8%
